# Test results published in the supplement of paper PMC4723716.
# ± gives the uncertainty stated by the source. Over roughly 9,900 compounds, “viability index relative to DMSO control” has its median near 1; the lowest 2% begin near 0.85. The list shows a part of the results.
# Test system: Plasmodium falciparum NF54 stage V gametocytes
# Assay: viability index relative to DMSO control (fraction); higher = less gametocyte killing
# Details: 2.5 µM, library set: Broad Institute DOS, incubation time: 72 h
# Method in brief: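 Stage V gametocytes of P. falciparum NF54 were held in serum-free screening medium at 0.75% gametocytemia and 1.25% hematocrit, 10 µl per well of a 1,536-well plate, and exposed to compound at 2.5 µM for 72 hr at 37°C under low oxygen. A 3 µl mix of 2.5 µM MitoTracker Red CMXRos with 0.13% saponin was then added for one to two hours, after which one field per well was imaged and red particles of 20–70 µm2 were counted. The viability index equals this count divided by the plate mean from wells given solvent alone.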
row,SMILES,viability index
1,COc1ccccc1NC(=O)N1CC(=O)N2[C@H](C1)[C@@H](c1ccc(C#CC(C)C)cc1)[C@@H]2CO,1.01 ± 0.047
2,N#C[C@H]1N[C@H](CO)[C@@H]1c1ccc(C#CC2CCCCC2)cc1,1.13 ± 0.017
3,N#C[C@H]1[C@@H](c2ccc(-c3cccnc3)cc2)[C@@H](CO)N1C(=O)Nc1ccc(F)cc1,1.06 ± 0.047
4,O=C(c1ccccc1F)N1C[C@H]2[C@@H](c3ccccc31)[C@@H](CO)N2C(=O)Nc1ccccc1,0.955 ± 0.049
5,COc1ccc2c3c([nH]c2c1)[C@@H](CO)N(C)C[C@]31CCN(CC1)C(=O)CN(C)C,0.951 ± 0.095
6,CCCNC(=O)N1C[C@]2(CCN(Cc3nccs3)CC2)c2c([nH]c3cc(OC)ccc23)[C@H]1CO,0.946 ± 0.061
7,COCC(=O)N1[C@@H](CO)[C@@H]2c3ccccc3N(C(=O)Nc3ccccc3Cl)C[C@@H]21,1.01 ± 0.042
8,O=C(Cc1cccnc1)N1CC(=O)N2[C@H](C1)[C@@H](c1ccc(/C=C/c3ccccc3)cc1)[C@@H]2CO,1 ± 0.029
9,C/C=C/c1ccc([C@@H]2[C@@H](CNC(=O)C3CCC3)N(C(=O)NCCC)[C@H]2CO)cc1,1.09 ± 0.035
10,CC(C)[C@@H]1C(=O)N[C@@H](c2ccc(F)cc2)C/C=C/C[C@H](C)Oc2ccccc2C(=O)N1C.CC(C)[C@@H]1C(=O)N[C@@H](c2ccc(F)cc2)C/C=C\C[C@H](C)Oc2ccccc2C(=O)N1C,1 ± 0.033
11,Cc1ccc(S(=O)(=O)Nc2cccc3c2O[C@@H](CN(C)C(=O)Nc2ccc(C(F)(F)F)cc2)[C@H](C)CN([C@@H](C)CO)C3=O)cc1,1.06 ± 0.047
12,C[C@@H]1CN([C@@H](C)CO)C(=O)Cc2cc(NC(=O)C3CC3)ccc2O[C@H]1CN(C)S(=O)(=O)c1cn(C)cn1,1.03 ± 0.0042
13,CN(C)C(=O)c1cccc(-c2ccc([C@H]3[C@@H](CO)N4CCCCN(CC5CCOCC5)C[C@@H]34)cc2)c1,1.017 ± 0.0031
14,C/C=C/c1ccc([C@H]2[C@@H](CO)N(C(C)=O)[C@H]2CN(C(C)=O)C2CCCC2)cc1,0.971 ± 0.07
15,O=C(C[C@H]1C[C@@H]2c3cc(NC(=O)C4CCC4)ccc3O[C@@H]2[C@@H](CO)O1)NC1CCCC1,1.08 ± 0.031
16,C[C@H](CO)N1C[C@H](C)[C@H](CN(C)CC2CC2)Oc2ccc(NC(=O)CCC(F)(F)F)cc2CC1=O,0.953 ± 0.022
17,O=C(C[C@@H]1CC[C@@H]2[C@H](COC[C@H](O)CN2S(=O)(=O)c2ccccc2)O1)NCC1CCCCC1,1.088 ± 0.009
18,CC(C)C[C@@H]1COCn2nncc2CCCC(=O)N1,1.02 ± 0.058
19,COCC(=O)N1CC[C@H]2[C@@H]1c1cc(-c3cccc(F)c3)ccc1N(C)[C@H]2CO,1.08 ± 0.035
20,CO[C@H](CN(C)C(=O)c1ccc2c(c1)OCO2)[C@H](C)CN([C@@H](C)CO)S(=O)(=O)c1ccc(Cl)cc1,1.03 ± 0.075
21,C/C=C/c1ccc([C@H]2[C@@H](CO)N3CCCCN(CCC(F)(F)F)C[C@@H]23)cc1,1.03 ± 0.051
22,C[C@@H]1CCCCO[C@H](CN(C)S(C)(=O)=O)[C@@H](C)CN([C@@H](C)CO)C(=O)c2cc(NC(=O)NC3CCCCC3)ccc2O1,1.09 ± 0.02
23,COc1ccc(NC(=O)N(C)C[C@@H]2OCCCC[C@H](C)Oc3ccc(NC(=O)c4ccncc4)cc3C(=O)N([C@H](C)CO)C[C@@H]2C)cc1,1 ± 0.021

row,SMILES,viability index
1,CO[C@H]1CN(C)C(=O)c2cc(NC(=O)c3cnccn3)ccc2OC[C@H](C)NC[C@H]1C,1.09 ± 0.041
2,C[C@@H]1CN([C@H](C)CO)C(=O)c2ccccc2-c2ccccc2CO[C@H]1CN(C)C(=O)[C@@H](Cc1ccccc1)N(C)C,1.03 ± 0.1
3,C[C@H](CO)N1C[C@H](C)[C@@H](CN(C)C(=O)Nc2ccnc(N3CCOCC3)c2)OCc2ccccc2-c2ccccc2C1=O,1.02 ± 0.081
4,CCNC(=O)C[C@H]1CC[C@H]2[C@@H](COC[C@@H](O)CN2C(=O)C2CCCC2)O1,1.02 ± 0.041
5,N#C[C@@H]1[C@@H](c2ccccc2)[C@@H](CO)N1C(=O)c1ccccc1F,1.04 ± 0.067
6,CO[C@H]1CN(C)C(=O)c2ccc(NC(=O)c3nc4ccccc4s3)cc2OC[C@@H](C)N(Cc2cccnc2)C[C@@H]1C,0.98184 ± 0.00094
7,O=C(Nc1ccccc1F)N[C@@H]1CC[C@@H](CCNC(=O)C2CC2)O[C@H]1CO,1.13 ± 0.19
8,C[C@H]1CCCCO[C@@H](CN(C)C(=O)C2CCCCC2)[C@@H](C)CN([C@@H](C)CO)C(=O)c2cc(NS(=O)(=O)c3ccccc3)ccc2O1,1.04 ± 0.088
9,COc1ccc(-c2ccc([C@@H]3[C@H](CN(C)S(C)(=O)=O)N[C@@H]3CO)cc2)cc1,0.9719 ± 0.0018
10,COc1ccc(NC(=O)N(C)C[C@@H]2Oc3ccc(NC(=O)CCN4CCOCC4)cc3C(=O)N([C@@H](C)CO)C[C@H]2C)cc1,1.07 ± 0.11
11,CN(C)C(=O)c1ccc(-c2ccc([C@H]3[C@H]4CN(C(=O)CC5CC5)CC(=O)N4[C@H]3CO)cc2)cc1,1.04 ± 0.069
12,O=C(C[C@@H]1C=C[C@@H](NC(=O)Nc2ccccc2F)[C@@H](CO)O1)NCc1ccc(-c2ccccc2)cc1,1.09 ± 0.03
13,C[C@@H]1CN([C@@H](C)CO)C(=O)c2ccccc2-c2ccccc2CO[C@@H]1CN(C)C(=O)NC1CCCCC1,0.881 ± 0.013
14,C[C@H](CO)N1C[C@H](C)[C@H](CN(C)C(=O)Nc2ccc3c(c2)OCO3)OCc2cn(nn2)CCCC1=O,1.028 ± 0.0083
15,COc1ccccc1CNC(=O)C[C@@H]1CC[C@@H]2[C@H](COc3ccc(NC(C)=O)cc3C(=O)N2C)O1,1.1 ± 0.072
16,Cc1noc(C)c1NC(=O)Nc1ccc2c(c1)C(=O)N(C)[C@@H]1CC[C@@H](CC(=O)N[C@H]3CCN(Cc4ccccc4)C3)O[C@H]1CO2,1.15 ± 0.023
17,COc1ccccc1-c1ccc2c(c1)[C@@H]1[C@@H](CCN1C(=O)C1CCC1)[C@H](CO)N2,0.655 ± 0.025
18,Cc1noc(C)c1S(=O)(=O)N(C)C[C@H]1OCCCC[C@H](C)Oc2ccc(N(C)C)cc2C(=O)N([C@H](C)CO)C[C@@H]1C,1.05 ± 0.072
19,C/C=C/c1ccccc1[C@@H]1[C@@H](C#N)N(C(C)=O)[C@H]1CO,1.07 ± 0.15
20,CCC(=O)N1CC[C@@H]2[C@H]1c1cc(-c3ccc(C#N)cc3)ccc1N(C)[C@H]2CO,1.1 ± 0.052
21,CCCNC(=O)N1CC2(C1)[C@H](c1ccccc1)[C@@H](CO)N2CC1CCOCC1,0.995 ± 0.018
22,COc1cccc(S(=O)(=O)N(C)C[C@H]2OCc3ccccc3-c3c(n(C)c4ccccc34)C(=O)N([C@@H](C)CO)C[C@H]2C)c1,0.833 ± 0.059
